Results: the supplement of paper PMC4967469

What follows are cell lines tested with CC1=C(C(=O)Nc2cc3cn[nH]c3cc2F)C(c2ccc(C(F)(F)F)cc2)CC(=O)N1 [GSK429286A] (assay: Viability of human cancer cell lines after 72 h of drug (GDSC screen)). Conditions: top dose inferred.
Method: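 Human cancer cell lines in 384-well plates, medium with 10% serum, drug for 72 h over a 256-fold dose range (nine 2-fold or five 4-fold steps up to the top dose). Adherent lines were fixed and stained with the nucleic acid dye Syto60, suspension lines read with resazurin; signal relative to control wells, capped at 0 and 100%. One two-parameter sigmoid per drug and line, fitted in a mixed model over all curves with the slope shared within a line.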
ACHN (kidney, adherent, top dose 20 µM) was tested, and the AUC was 0.969 and the IC50 was greater than 20 µM. AGS (stomach, adherent, top dose 20 µM) was tested, and the AUC was 0.984 and the IC50 was greater than 20 µM. “ALL-PO (lymphoblastic leukaemia, suspension, top dose 20 µM)” showed an AUC of 0.919 and an IC50 greater than 20 µM. Work on “ALL-SIL (T-cell leukaemia, suspension, top dose 20 µM)” yielded an AUC of 0.91 and an IC50 greater than 20 µM. In the case of “AM-38 (glioma, semi-adherent, top dose 20 µM)”, the AUC is reported as 0.881 and the IC50 is reported as greater than 20 µM. “AMO-1 (haematopoietic neoplasm, suspension, top dose 20 µM)” was tested, and the AUC was 0.944 and the IC50 was greater than 20 µM. “AN3-CA (endometrium, adherent, top dose 20 µM)” showed an AUC of 0.965 and an IC50 greater than 20 µM. Work on “ARH-77 (myeloma, suspension, top dose 20 µM)” yielded an AUC of 0.974 and an IC50 greater than 20 µM. In the case of “ASH-3 (thyroid, adherent, top dose 20 µM)”, the AUC is reported as 0.988 and the IC50 is reported as greater than 20 µM. Cell Line “ATN-1 (T-cell lymphoblastic leukaemia, suspension, top dose 20 µM)” has an AUC of 0.844 and an IC50 of 12.9 µM. “AU565 (breast, adherent, top dose 20 µM)” gave an AUC of 0.975 and an IC50 greater than 20 µM. Work on “AsPC-1 (pancreas, adherent, top dose 20 µM)” yielded an AUC of 0.967 and an IC50 greater than 20 µM. “BB30-HNC (head and neck, adherent, top dose 20 µM)” gave an AUC of 0.982 and an IC50 greater than 20 µM. For “BB49-HNC (head and neck, adherent, top dose 20 µM)”, the AUC was 0.944 and the IC50 was greater than 20 µM. In the case of “BB65-RCC (kidney, adherent, top dose 20 µM)”, the AUC is reported as 0.983 and the IC50 is reported as greater than 20 µM. For “BC-1 (B-cell lymphoma, suspension, top dose 20 µM)”, the AUC was 0.932 and the IC50 was greater than 20 µM. Cell Line “BC-3 (B-cell lymphoma, suspension, top dose 20 µM)” has an AUC of 0.984 and an IC50 greater than 20 µM. For “BCPAP (thyroid, adherent, top dose 20 µM)”, the AUC was 0.978 and the IC50 was greater than 20 µM. In the case of “BE2-M17 (neuroblastoma, adherent, top dose 20 µM)”, the AUC is reported as 0.985 and the IC50 is reported as greater than 20 µM. With “BE-13 (lymphoblastic leukaemia, suspension, top dose 20 µM)” the AUC was 0.775 and the IC50 was 7.37 µM. “BEN (non-small cell lung carcinoma, adherent, top dose 20 µM)” was tested, and the AUC was 0.959 and the IC50 was greater than 20 µM. With “BFTC-905 (bladder, adherent, top dose 20 µM)” the AUC was 0.99 and the IC50 was greater than 20 µM. With “BFTC-909 (kidney, adherent, top dose 20 µM)” the AUC was 0.973 and the IC50 was greater than 20 µM. “BHT-101 (thyroid, adherent, top dose 20 µM)” showed an AUC of 0.965 and an IC50 greater than 20 µM. With “BHY (head and neck, adherent, top dose 20 µM)” the AUC was 0.985 and the IC50 was greater than 20 µM. Work on “BICR10 (head and neck, adherent, top dose 20 µM)” yielded an AUC of 0.984 and an IC50 greater than 20 µM. Cell Line “BICR22 (head and neck, adherent, top dose 20 µM)” has an AUC of 0.983 and an IC50 greater than 20 µM. “BICR31 (head and neck, adherent, top dose 20 µM)” showed an AUC of 0.988 and an IC50 greater than 20 µM. “BICR78 (head and neck, adherent, top dose 20 µM)” was tested, and the AUC was 0.975 and the IC50 was greater than 20 µM. In the case of “BL-41 (Burkitt lymphoma, suspension, top dose 20 µM)”, the AUC is reported as 0.791 and the IC50 is reported as 6.74 µM. “BPH-1 (prostate, adherent, top dose 20 µM)” was tested, and the AUC was 0.909 and the IC50 was greater than 20 µM. “BT-20 (breast, adherent, top dose 20 µM)” was tested, and the AUC was 0.984 and the IC50 was greater than 20 µM. “BT-474 (breast, adherent, top dose 20 µM)” was tested, and the AUC was 0.986 and the IC50 was greater than 20 µM. “BT-483 (breast, adherent, top dose 20 µM)” showed an AUC of 0.978 and an IC50 greater than 20 µM.

Lines with a small IC50 respond at low doses; a limit (>, <) means that the fit lies beyond the doses tested. AUC is the area under the same curve over the 256-fold range up to the top dose, as a fraction; values near 1 show little effect. A top dose marked as inferred was calculated from the reported fits.
